Structures can show the parent of a compound that is named as a salt. The list shows a part of the results. The data scatter; read single values as rough.
Experiments:
Experiment in all cases: ALDHbr (CSC) cell proportion score relative to DMSO vehicle (ratio to DMSO); breast (SUM159) / gastric (MKN45) / pancreatic (PANC1) / colon cancer lines; ALDHbr cells have high ALDH activity and are rich in cancer stem cells (CSC); higher = more CSC (ALDHbr) cells remaining
Conditions in all cases: 10 µM; 72 h
MKN45 = tested on: MKN45
PANC1 = tested on: PANC1
SUM159 = tested on: SUM159
T84 = tested on: T84
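Also: High-content imaging of ALDEFLUOR-stained cells with Hoechst-labelled nuclei in 384-well plates, triplicate wells, scored as Z-score against 0.1% DMSO vehicle, negative meaning fewer ALDHbr cells.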

C#C[C@]1(OC(C)=O)CC[C@H]2[C@@H]3CCC4=CC(=NO)CC[C@@H]4[C@H]3CC[C@@]21CC (mixture of isomers) [Norgestimate] was tested, and the ALDHbr (MKN45) was 0.898, the ALDHbr (PANC1) was 0.91 and the ALDHbr (SUM159) was 0.798. The ALDHbr (T84) was 0.84.
N#Cc1ccc(C(c2ccc(C#N)cc2)n2cncn2)cc1 [Letrozole] was tested, and the ALDHbr (MKN45) was 0.992, the ALDHbr (PANC1) was 0.925 and the ALDHbr (SUM159) was 0.836. For the same compound, the ALDHbr (T84) was 0.91.
For CC(=O)Oc1ccccc1C(=O)Nc1ncc([N+](=O)[O-])s1 [Nitazoxanide], the ALDHbr (MKN45) was 0.73, the ALDHbr (PANC1) was 1.05 and the ALDHbr (SUM159) was 1.03. The ALDHbr (T84) was 0.729.
With Cc1c(Nc2ncccc2C(=O)O)cccc1C(F)(F)F [Flunixin meglumine] the ALDHbr (MKN45) was 0.889, the ALDHbr (PANC1) was 0.892 and the ALDHbr (SUM159) was 0.977. For the same compound, the ALDHbr (T84) was 0.811.
In the case of Nc1ccc(C(=O)NCC(=O)O)cc1 [Aminohippuric acid], the ALDHbr (MKN45) is reported as 0.921, the ALDHbr (PANC1) is reported as 0.932 and the ALDHbr (SUM159) is reported as 1.01. The ALDHbr (T84) was 0.959.
Compound Clc1ccccc1C(c1ccccc1)(c1ccccc1)n1ccnc1 [Clotrimazole] has an ALDHbr (MKN45) of 1.34, an ALDHbr (PANC1) of 1.15 and an ALDHbr (SUM159) of 0.694. For the same compound, the ALDHbr (T84) was 0.847.
For CN1[C@@H]2CC[C@H]1C[C@@H](OC(=O)C(O)c1ccccc1)C2 (mixture of isomers) [Homatropine hydrobromide (R,S)], the ALDHbr (MKN45) was 0.945, the ALDHbr (PANC1) was 0.91 and the ALDHbr (SUM159) was 0.941. It also gave an ALDHbr (T84) of 0.905.

Reference: the supplement of paper PMC11880418
